# Results from the supplement of paper PMC3334620.
# In all, about 33,000 sequences were measured (“E-score (-0.5 to 0.5)”: median about -0.021, highest 2% from about 0.32 on). The list shows a part of the results.
# Target: T1, Zap1 (UniProt P47043)
# T1 sequence: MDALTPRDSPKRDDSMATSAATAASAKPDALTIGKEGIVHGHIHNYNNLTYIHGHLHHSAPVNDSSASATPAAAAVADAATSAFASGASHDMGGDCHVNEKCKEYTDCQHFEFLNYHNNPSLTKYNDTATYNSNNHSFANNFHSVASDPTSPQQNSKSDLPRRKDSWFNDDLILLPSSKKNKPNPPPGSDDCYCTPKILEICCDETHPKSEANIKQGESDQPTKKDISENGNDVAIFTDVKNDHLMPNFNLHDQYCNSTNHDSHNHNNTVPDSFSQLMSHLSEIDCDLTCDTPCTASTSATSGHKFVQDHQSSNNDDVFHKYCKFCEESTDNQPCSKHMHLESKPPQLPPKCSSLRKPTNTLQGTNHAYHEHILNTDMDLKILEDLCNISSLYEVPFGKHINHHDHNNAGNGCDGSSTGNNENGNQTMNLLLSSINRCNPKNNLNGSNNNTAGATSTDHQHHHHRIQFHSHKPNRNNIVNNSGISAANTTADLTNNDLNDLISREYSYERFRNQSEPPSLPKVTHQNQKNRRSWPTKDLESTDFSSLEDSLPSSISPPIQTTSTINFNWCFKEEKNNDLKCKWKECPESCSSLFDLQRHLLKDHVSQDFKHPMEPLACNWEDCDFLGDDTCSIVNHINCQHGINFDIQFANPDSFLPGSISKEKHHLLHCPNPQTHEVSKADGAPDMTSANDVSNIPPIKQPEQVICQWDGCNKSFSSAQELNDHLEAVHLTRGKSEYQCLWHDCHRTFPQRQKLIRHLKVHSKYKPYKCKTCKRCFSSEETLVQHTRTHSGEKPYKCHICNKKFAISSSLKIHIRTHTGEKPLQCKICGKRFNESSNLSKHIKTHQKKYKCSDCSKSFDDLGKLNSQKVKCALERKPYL
# Experiment: PBM E-score (8-mer binding enrichment) (E-score (-0.5 to 0.5)); higher = stronger / more preferred TF binding; most listed sequences are background and not binding sites
# Settings: protein concentration: 200 nM; construct: GST-full length
# Summary of the method: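 GST-tagged yeast TFs (full-length or DNA-binding domain) were made by PURExpress in vitro transcription/translation and applied at about 100-200 nM to universal all-10-mer Agilent arrays. The arrays were made double-stranded by primer extension, on fresh or once-stripped slides. Bound protein was detected with fluorescent anti-GST, and scans were normalised with masliner. Each ungapped eight-base word, pooled with its reverse complement, received an E-score (modified Wilcoxon-Mann-Whitney statistic) from the Universal PBM Analysis Suite.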
row,Sequence,PBM E-score
1,GAGTACGC,-0.0819
2,GCAGAGAC,-0.307
3,CCTCCTGC,-0.168
4,CGCATTAA,0.172
5,AACCTTGG,0.274
6,CAACCCAG,0.113
7,CTGGACAA,-0.16
8,CGACAAAA,0.277
9,ACCACCGA,0.172
10,TCTGCCCA,-0.289
11,AGTGCGAT,-0.0361
12,GGTTCAGA,-0.0861
13,GGTTTTGA,0.253
14,AGAGGACC,0.0193
15,CTTTTGGA,0.0485
16,TCAATAAA,0.0711
17,TCCAGAGA,-0.321
18,CCGATACC,0.0713
19,CCCTCACA,0.027
20,ACCATCTC,-0.0172
21,CCATATGA,0.0912
22,ATAGAGGC,-0.125

row,Sequence,PBM E-score
1,ATTCAGGA,-0.058
2,AGTATCGC,-0.241
3,CTTCACGA,-0.189
4,AAAGAACT,0.0294
5,GCATGGTA,0.132
6,CTTTTCGA,0.104
7,GTATCGAA,0.185
8,TATTCGCA,0.0161
9,CGAACAAA,0.254
10,CAGCGAAG,-0.0164
11,GACCTCAA,0.295
12,CCCACCGC,0.00509
13,ATCTCCTG,0.063
14,GCTCGAAA,-0.0282
15,CAACCGAG,0.078
16,ATTGTTCG,0.234
17,GCACGCCA,-0.201
18,GCGGCGCC,0.131
19,TCTCTAAA,-0.0277
20,AGGTAGGA,0.00828
21,GACCTAAA,0.151
22,GAAAGCAA,0.179

row,Sequence,PBM E-score
1,ACACGATA,0.059
2,TGGTCCAA,-0.0135
3,CTAGGGAG,-0.129
4,ACCTTAGC,0.237
5,CCGTAAGA,-0.119
6,CTAGAACA,-0.0455
7,TGAGCGAA,0.0429
8,AACCCCGA,0.266
9,GGGCCCCC,-0.0263
10,AGCGTACG,-0.279
11,AGGGTCAT,0.449
12,AACGTCGT,-0.125
13,CTGGCTGA,-0.273
14,GTGTAGTA,0.00904
15,AGTCGCAA,0.0255
16,ATTAATAG,0.195
17,CCCACCAA,-0.0734
18,AAGGCCCT,0.0667
19,CTCAAAGC,-0.0283
20,AGTTGGAA,-0.042
21,AATCGGTA,0.00973
22,TCACCTAA,0.116

row,Sequence,PBM E-score
1,CATTCGCA,-0.087
2,GAATGTGA,-0.0969
3,GAGAGCTC,-0.0971
4,ATCAGTTC,-0.0391
5,AGATCCAG,-0.0992
6,AATCGCGT,0.0556
7,CTCCACTA,-0.0846
8,GAACTGGC,-0.0649
9,AGAAGAGC,-0.32
10,AGACCACA,0.121
11,CCGAATCG,-0.103
12,ACTACGCG,-0.00612
13,AAACGTCG,-0.109
14,AATTATGT,0.00153
15,CCGTGAGC,-0.191
16,ACCGTTCC,0.0949
17,AGAGACGA,-0.0945
18,GCAGTGGC,-0.0743
19,CACCAGTA,-0.0763
20,ATAGGGGC,-0.0114
